{
  "source": "the supplement of paper PMC11417369",
  "note": "± gives the standard deviation of the averaged measurements. The list shows a part of the results.",
  "data": [
    {"test_system": "PfAP2-LT AP2 domain (GST-tagged)", "experiment": "gcPBM binding intensity (ln(normalized median fluorescence intensity)); higher = stronger DNA binding", "how_it_was_run": "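Binding of GST-tagged P. falciparum DNA-binding domains, expressed in E. coli and used at about 25 μg on average, was carried out for 1 h in 1× PBS containing 1% milk, 0.2 mg/ml BSA, 0.5% salmon testes DNA and 0.03% Triton X-100. The target was an Agilent 4 × 180k array of primer-extended double-stranded 36-bp intergenic genomic probes plus negative controls, read with Alexa488 anti-GST antibody at 488 nm. Binding intensity is the highest Masliner-normalised natural-log median intensity across replicate spots of either probe orientation.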", "values": [
      {"sequence": "TTTTTTTTTTTTTTTGCACACACATAATAGGTACAA [CACACA_site3578]", "gcPBM binding intensity (ln)": "9.41 ± 0.3"},
      {"sequence": "ATCTTATATGATCACACACACACGCACAAAACAGAA [CACACA_site4913]", "gcPBM binding intensity (ln)": "9.79 ± 0.2"},
      {"sequence": "TAAATATATATATACACACACATACACAAAAAAAAA [CACACA_site3580]", "gcPBM binding intensity (ln)": "9.51 ± 0.31"},
      {"sequence": "TGTGGTTACATGTGCACACACTTATTTCGTTCTTAT [CACACA_site4907]", "gcPBM binding intensity (ln)": "9.47 ± 0.47"},
      {"sequence": "ATTGCATATAATGGCACACATAAATCCATAATATAT [CACACA_site297]", "gcPBM binding intensity (ln)": "9.02 ± 0.38"},
      {"sequence": "TATTTTTTTTCTTATACACACCATGCATCAAACTAA [CACACA_site5208]", "gcPBM binding intensity (ln)": "8.77 ± 0.5"},
      {"sequence": "TTTATATATATATATATATATAATAAATGATACACA [TGCATGCA_negctrl_site392]", "gcPBM binding intensity (ln)": "8.91 ± 0.2"},
      {"sequence": "TTTGCACCGTTTAAGTGTACAGAATTATGACATATA [XGTACX_site6735]", "gcPBM binding intensity (ln)": "8.58 ± 0.4"},
      {"sequence": "TCAAAAATATTCTGGAGTACCTTTTTAAAGGTATAG [XGTACX_site6893]", "gcPBM binding intensity (ln)": "8.43 ± 0.54"},
      {"sequence": "TAAGTTATATGTATATGTACTTATATATATATATAT [XGTACX_site5402]", "gcPBM binding intensity (ln)": "8.79 ± 0.29"},
      {"sequence": "ATTAAAAAAATTAAAAGTACACATATTTCAATGATA [XGTACX_site5606]", "gcPBM binding intensity (ln)": "8.43 ± 0.41"},
      {"sequence": "TAAAAAAAAAAAAAAACACACATATAAATATATATA [CACACA_site1243]", "gcPBM binding intensity (ln)": "8.56 ± 0.52"},
      {"sequence": "AAAATTAAAAAGAACACACAAATATATCTATAATAA [CACACA_site7660]", "gcPBM binding intensity (ln)": "8.86 ± 0.5"},
      {"sequence": "CAAAATTTATGTAAAAGTACAAAAATATAGAAAGAT [XGTACX_site1122]", "gcPBM binding intensity (ln)": "9.02 ± 0.47"},
      {"sequence": "TAATCGAAACAAAGAACATGCAAACATATACCTATA [TGCATGCA_site894]", "gcPBM binding intensity (ln)": "8.81 ± 0.45"},
      {"sequence": "TGTGTTCATCTATGCACACGCATATATATTATTGTT [CACACA_site5985]", "gcPBM binding intensity (ln)": "9.11 ± 0.36"},
      {"sequence": "TTTTATTCCTTCTTTGCACACGTTTAAAAATATATA [CACACA_site2899]", "gcPBM binding intensity (ln)": "8.99 ± 0.38"},
      {"sequence": "AATATAATATAAGGATCACACACAAACACCCATATA [CACACA_site8084]", "gcPBM binding intensity (ln)": "9.77 ± 0.2"},
      {"sequence": "AAAGTATTCTTTACACGTACATATATATAAATATAA [XGTACX_site7557]", "gcPBM binding intensity (ln)": "8.59 ± 0.33"},
      {"sequence": "AATATAAATAATATATGTACATATATATATATATAT [XGTACX_site1021]", "gcPBM binding intensity (ln)": "9.47 ± 0.071"},
      {"sequence": "TTTGTATATATTAATGTACACACATGCGTATGTTCG [CACACA_site9193]", "gcPBM binding intensity (ln)": "9.36 ± 0.39"},
      {"sequence": "AATATAGATATAAAAAGTACATTATATATATATATA [XGTACX_site6899]", "gcPBM binding intensity (ln)": "9.14 ± 0.25"},
      {"sequence": "ATGACTCTCAAGTTTGCACACATTTATATTTTTTAA [CACACA_site2605]", "gcPBM binding intensity (ln)": "9.13 ± 0.33"},
      {"sequence": "TATACATACCATAATGCATGTAAGAACAAATAACTG [TGCATGCA_site264]", "gcPBM binding intensity (ln)": "8.85 ± 0.42"},
      {"sequence": "AAAAAAAAAAAAAAGGTGCATACTTTGAATTAATAT [GTGCAC_site9401]", "gcPBM binding intensity (ln)": "8.61 ± 0.54"},
      {"sequence": "ACAAAATTTACAAAATGTACAAAATTTACAAAGTAT [XGTACX_site6463]", "gcPBM binding intensity (ln)": "8.79 ± 0.43"},
      {"sequence": "GTATATCATATTTCATGTACACAAAAAAATAAAAAT [XGTACX_site704]", "gcPBM binding intensity (ln)": "8.91 ± 0.44"},
      {"sequence": "TATATATATTATATATGTACATATTATATATATATA [XGTACX_site7300]", "gcPBM binding intensity (ln)": "8.6 ± 0.35"},
      {"sequence": "ATATATTTGATAAGAGTGCACAAATACATACATACA [GTGCAC_site9704]", "gcPBM binding intensity (ln)": "9.14 ± 0.31"},
      {"sequence": "TTTAAAATACAGAAGGTGCATTTAACATATTTGTAT", "gcPBM binding intensity (ln)": "8.59 ± 0.4"},
      {"sequence": "TATATATATAAACACACACACATATATATATATATA [CACACA_site4584]", "gcPBM binding intensity (ln)": "9.94 ± 0.14"},
      {"sequence": "AAAAAAAAAAAATGCACACATATATTTCCATATACA [CACACA_site1471]", "gcPBM binding intensity (ln)": "8.95 ± 0.36"},
      {"sequence": "ATATATATATATATATGTACTAATTAATATTTCGAG [XGTACX_site580]", "gcPBM binding intensity (ln)": "9.47 ± 0.028"},
      {"sequence": "ATAAAATAATGAAAAACACACATTTTTATTTGTATA [CACACA_site3369]", "gcPBM binding intensity (ln)": "8.69 ± 0.42"},
      {"sequence": "ATATATATATATGAATCACACACAAAAAATATAGAG [CACACA_site9298]", "gcPBM binding intensity (ln)": "9.39 ± 0.26"},
      {"sequence": "AATAACATGTTATATACACACATTATGAAGTCTTCA [CACACA_site746]", "gcPBM binding intensity (ln)": "9.02 ± 0.35"},
      {"sequence": "AAGATTATAAATATATGTACATAAATATATTATATA [XGTACX_site8056]", "gcPBM binding intensity (ln)": "8.62 ± 0.52"},
      {"sequence": "ATTGTTTTTTTTTCTTTGTGGAATGAATGAATATAT [XGTACX_negctrl_site603]", "gcPBM binding intensity (ln)": "8.71 ± 0.41"},
      {"sequence": "TTTTTTTTTTCAATGGCACACATTTTAGATTTATGC [CACACA_site1074]", "gcPBM binding intensity (ln)": "8.88 ± 0.45"},
      {"sequence": "GTTTTAACAAAATTAGTGCATTTATCAATTATATAA", "gcPBM binding intensity (ln)": "8.32 ± 0.46"},
      {"sequence": "ATAATACTACCTACATGTACTTATATATAAATGAAT [XGTACX_site3417]", "gcPBM binding intensity (ln)": "9.1 ± 0.34"},
      {"sequence": "AAAGAATCAAGAATAGTGCAAATATGTATAACCTTT", "gcPBM binding intensity (ln)": "9.01 ± 0.51"},
      {"sequence": "ACATCAAGCGGACACACACACACACCGACAGACACA [CACACA_site4361]", "gcPBM binding intensity (ln)": "10.2 ± 0.33"},
      {"sequence": "AAAATACATAAACGTTCACACATTGAAGATCACAAG [CACACA_site5347]", "gcPBM binding intensity (ln)": "9.1 ± 0.45"},
      {"sequence": "TAGGTACATAAATTGGTGCAAAGTGTACATATATAT", "gcPBM binding intensity (ln)": "9.14 ± 0.47"}
    ]}
  ]
}
